Reference: patent US20230348616A1 (MIE UNIVERSITY, published 2023)

Biological target: T1, HLA-A*0201/β2-microglobulin/NY-ESO peptide complex (human, biotinylated with E. coli biotin ligase at the added recognition sequence (biotinylated form used in the ELISA))
T1 construct: also called HLA/NY-ESO; HLA-A2/NY-ESO
Test: SPR (Biacore T200), scFv captured by anti-His antibody, HLA/NY-ESO as analyte, single cycle kinetics

Kd [nM]	Binder
9.3	NYC-0005 (scFv, Captured by anti-His antibody in SPR; also called scFv of mAb24955N) scFv: GEVQLVESGGGVVQPGGSLRLSCVASGFTFDDYAMYWVRQVPGKDLEWVSLISGDGDITYYVDSVKGRFTVSRDNNKNSLYLQMKSLRVEDTALYYCAKDMIYYASWSGYGSSDYYYYVMDVWGQGTTVTVSSGGGGSGGGGSGGGGS[gap - about 100 residues]TRLEIKGAAAGAGGDYKDDDDKGAAAHHHHHH
1000	NYC-0007 (scFv, Captured by anti-His antibody in SPR; also called scFv of mAb28075P) scFv: GEVQLVESGGGVVQPGGSLRLSCAASGFTFDDYAMHWVRQAPGKGLEWVSLISGDGDNTYYADSVKGRFTISRDNNKNSLYLQMNSLRTEDTAFYYCAKELIFGKVLHDFYYYVMDVWGQGTTVTVSSGGGGSGGGGSGGGGS[gap - about 100 residues]TRLEIKGAAAGAGGDYKDDDDKGAAAHHHHHH
